Test results as given in the BET-seq Pho4 binding data (Le et al. 2018).
Some of the results follow. Values were computed here from the reads of four pooled replicates and scatter widely.

Biological target: T1, Pho4 (S. cerevisiae) (UniProt P07270)
T1 sequence: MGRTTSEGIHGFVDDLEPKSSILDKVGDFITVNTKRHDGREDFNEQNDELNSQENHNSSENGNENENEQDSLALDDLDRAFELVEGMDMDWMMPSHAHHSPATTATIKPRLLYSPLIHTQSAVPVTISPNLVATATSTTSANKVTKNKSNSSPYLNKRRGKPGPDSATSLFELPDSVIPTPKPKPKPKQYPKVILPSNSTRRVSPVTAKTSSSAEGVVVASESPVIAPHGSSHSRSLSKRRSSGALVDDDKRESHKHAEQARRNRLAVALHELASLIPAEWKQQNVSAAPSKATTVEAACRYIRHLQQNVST
Experiment: relative binding free energy (BET-seq); higher = weaker binding
Details: reference: library average

Sequence | relative binding free energy [kJ/mol]
TAGGCCACGTGGGGAT | -0.335
GAGATCACGTGGGGGG | 0.209
ATATTCACGTGTTAGT | 0.628
TTGTTCACGTGGAGAA | 0.962
TTTTGCACGTGCAATT | 0.46
CTTCGCACGTGCGGGG | -0.418
CTTATCACGTGCGTTA | 0.92
TTTTGCACGTGGAGTC | 0.209
GTGCGCACGTGGACTG | 0.0418
CATTACACGTGGTTGA | 0.335
GATCGCACGTGGAAGG | 0.586
AGATTCACGTGAGTGG | 1.46
GGATGCACGTGACAGG | 0.502
TAGGGCACGTGGGACT | -0.879
TTGGGCACGTGGGTTG | -0.753
TAATACACGTGTAAGT | 0.251
CAATGCACGTGGTGTT | -0.46
TGCTGCACGTGAGGTG | 0.711
GTAGACACGTGAGGGG | 1
CTATTCACGTGATTGG | 1.38
TGGAACACGTGTGCAG | 0.711
GGTATCACGTGATATA | 1.26
TTAGGCACGTGTATGG | -0.251
GGGGACACGTGGCGGT | 0.0418
GGCTTCACGTGGTGAA | 0.92

Sequence | relative binding free energy [kJ/mol]
TATGACACGTGGTTGG | -0.209
CGAAGCACGTGTAAGG | 0.251
CTTGTCACGTGCATTT | 0.293
CGGTACACGTGGTGGA | -0.335
ATATGCACGTGGATGA | 0.126
GGGGACACGTGTTTGA | 0.753
TTCTTCACGTGGGGAA | 0.502
TAGGGCACGTGGAGTC | 0
AAGTGCACGTGTCCGG | 0.46
CAAGTCACGTGCGGGG | 0.544
AGGTTCACGTGTAATG | 0.962
TTTGTCACGTGTGGGC | 0.753
GTCTACACGTGAGTGT | 1.17
TCTTTCACGTGAGTAT | 1.34
GTTTGCACGTGATAGC | 0.251
GGTAACACGTGGAGGA | 0.293
AGAGACACGTGGTGGT | -0.293
TGTAACACGTGATGTT | 0.502
CTTTGCACGTGGTAGC | -0.167
ATTTTCACGTGTGTTT | 1.55
GTGCTCACGTGCGGGT | -0.0418
GTTTTCACGTGAATGT | 1.76
TTAATCACGTGATTTT | 1.26
TTGTACACGTGCGAGT | 0.335
GTTTGCACGTGTTAGT | 0.46

Sequence | relative binding free energy [kJ/mol]
CTGGACACGTGTGGTA | 0.46
TGGCGCACGTGGGAGT | -0.837
TGATACACGTGAGATG | 1.51
TGATGCACGTGGAGAG | 0.502
TAGCGCACGTGATGGT | 0.126
GTGGTCACGTGGTTAC | 0.711
GTGTCCACGTGTTATG | 0.544
TATATCACGTGTCTTA | 0.879
ATTACCACGTGATGTG | 0.711
GTAATCACGTGATTAG | 1
AGGGGCACGTGATCTT | 0.167
AATGGCACGTGTTCAG | -0.335
TTGGCCACGTGGTAGT | 0
GTTAGCACGTGACTGG | 0.167
GCTTACACGTGGTTAG | 0.46
TGCAGCACGTGGGATG | -0.126
GTTGTCACGTGGGAGG | -0.126
TTGATCACGTGGTTGT | 0.335
TTTGTCACGTGGCTCT | -0.335
CGGGTCACGTGTGGAA | 0.544
CGTATCACGTGGTATT | 0.0837
TGTGTCACGTGCGATT | 0.795
TTTGGCACGTGCGAAA | -0.586
